{"source": "the supplement of paper PMC8728848", "test_in_all_cases": "glycan array binding signal (z-score within array); higher = stronger binding", "conditions_in_all_cases": "glycan notation: IUPAC condensed, linker removed", "key": {"[1]": {"biological_target": "Neu5Ac(a2-3)Gal(b1-4)[Fuc(a1-3)]GlcNAc(b1-3)Gal(b1-4)[Fuc(a1-3)]GlcNAc(b1-3)Gal(b1-4)[Fuc(a1-3)]GlcNAc", "procedure,_shortened": "(§1)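 Negative Z-scores can be read as non-binding. The Z-score is calculated within each array and then averaged across arrays of one protein sequence at different concentrations or buffers and across linkers. Arrays, 3228 in all, were curated from the Consortium for Functional Glycomics database and kept only where the protein sequence was available.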"}, "[2]": {"biological_target": "Neu5Ac(a2-3)Gal(b1-4)[Fuc(a1-3)]GlcNAc(b1-6)[Gal(b1-3)]GalNAc", "procedure,_shortened": "as §1"}, "[3]": {"biological_target": "Neu5Ac(a2-3)Gal(b1-4)[Fuc(a1-3)]GlcNAc(b1-6)[Neu5Ac(a2-3)Gal(b1-3)]GalNAc", "procedure,_shortened": "as §1"}, "[4]": {"biological_target": "Neu5Ac(a2-3)Gal(b1-4)[Fuc(a1-3)]GlcNAc6S", "procedure,_shortened": "as §1"}, "[5]": {"biological_target": "Neu5Ac(a2-3)Gal6S(b1-4)GlcNAc", "procedure,_shortened": "as §1"}, "[6]": {"biological_target": "Neu5Ac(a2-3)Gal6S(b1-4)[Fuc(a1-3)]GlcNAc", "procedure,_shortened": "as §1"}, "[7]": {"biological_target": "Neu5Ac(a2-3)GalNAc", "procedure,_shortened": "as §1"}, "[8]": {"biological_target": "Neu5Ac(a2-3)GalNAc(b1-4)GlcNAc", "procedure,_shortened": "as §1"}, "[9]": {"biological_target": "Neu5Ac(a2-3)[GalNAc(b1-4)]Gal(b1-4)Glc", "procedure,_shortened": "as §1"}, "[10]": {"biological_target": "Neu5Ac(a2-3)[GalNAc(b1-4)]Gal(b1-4)GlcNAc", "procedure,_shortened": "as §1"}, "[11]": {"biological_target": "Neu5Ac(a2-3)[Neu5Ac(a2-6)]GalNAc", "procedure,_shortened": "as §1"}, "[12]": {"biological_target": "Neu5Ac(a2-6)Gal", "procedure,_shortened": "as §1"}, "[13]": {"biological_target": "Neu5Ac(a2-6)Gal(b1-4)Glc", "procedure,_shortened": "as §1"}, "[14]": {"biological_target": "Neu5Ac(a2-6)Gal(b1-4)GlcNAc", "procedure,_shortened": "as §1"}, "[15]": {"biological_target": "Neu5Ac(a2-6)Gal(b1-4)GlcNAc(b1-2)Man(a1-3)Man(b1-4)GlcNAc(b1-4)GlcNAc", "procedure,_shortened": "as §1"}, "[16]": {"biological_target": "Neu5Ac(a2-6)Gal(b1-4)GlcNAc(b1-2)Man(a1-3)[Gal(b1-4)GlcNAc(b1-2)Man(a1-6)]Man(b1-4)GlcNAc(b1-4)GlcNAc", "procedure,_shortened": "as §1"}, "[17]": {"biological_target": "Neu5Ac(a2-6)Gal(b1-4)GlcNAc(b1-2)Man(a1-3)[GlcNAc(b1-2)Man(a1-6)]Man(b1-4)GlcNAc(b1-4)GlcNAc", "procedure,_shortened": "as §1"}, "[18]": {"biological_target": "Neu5Ac(a2-6)Gal(b1-4)GlcNAc(b1-2)Man(a1-3)[GlcNAc(b1-2)Man(b1-4)GlcNAc(b1-2)Man(a1-6)]Man(b1-4)GlcNAc(b1-4)GlcNAc", "procedure,_shortened": "as §1"}, "[19]": {"biological_target": "Neu5Ac(a2-6)Gal(b1-4)GlcNAc(b1-2)Man(a1-3)[Man(a1-6)]Man(b1-4)GlcNAc(b1-4)GlcNAc", "procedure,_shortened": "as §1"}, "[20]": {"biological_target": "Neu5Ac(a2-6)Gal(b1-4)GlcNAc(b1-2)Man(a1-3)[Neu5Ac(a2-6)Gal(b1-4)GlcNAc(b1-2)Man(a1-6)]Man(b1-4)GlcNAc(b1-4)GlcNAc", "procedure,_shortened": "as §1"}, "[21]": {"biological_target": "Neu5Ac(a2-6)Gal(b1-4)GlcNAc(b1-2)Man(a1-6)Man(b1-4)GlcNAc(b1-4)GlcNAc", "procedure,_shortened": "as §1"}, "[22]": {"biological_target": "Neu5Ac(a2-6)Gal(b1-4)GlcNAc(b1-2)Man(a1-6)[Gal(b1-4)GlcNAc(b1-2)Man(a1-3)]Man(b1-4)GlcNAc(b1-4)GlcNAc", "procedure,_shortened": "as §1"}, "[23]": {"biological_target": "Neu5Ac(a2-6)Gal(b1-4)GlcNAc(b1-2)Man(a1-6)[GlcNAc(b1-2)Man(a1-3)]Man(b1-4)GlcNAc(b1-4)GlcNAc", "procedure,_shortened": "as §1"}, "[24]": {"biological_target": "Neu5Ac(a2-6)Gal(b1-4)GlcNAc(b1-2)Man(a1-6)[Man(a1-3)]Man(b1-4)GlcNAc(b1-4)GlcNAc", "procedure,_shortened": "as §1"}, "[25]": {"biological_target": "Neu5Ac(a2-6)Gal(b1-4)GlcNAc(b1-3)Gal(b1-3)GlcNAc", "procedure,_shortened": "as §1"}, "[26]": {"biological_target": "Neu5Ac(a2-6)Gal(b1-4)GlcNAc(b1-3)Gal(b1-4)GlcNAc", "procedure,_shortened": "as §1"}, "[27]": {"biological_target": "Neu5Ac(a2-6)Gal(b1-4)GlcNAc(b1-3)Gal(b1-4)GlcNAc(b1-3)Gal(b1-4)GlcNAc", "procedure,_shortened": "as §1"}}, "note": "The list shows a part of the results."}
{"binder": "Flo5 (Saccharomyces cerevisiae), P38894 (protein) MGSSHHHHHHSSGLVPRGSHMSGATEACLPAGQRKSGMNINFYQYSLKDSSTYSNAAYMAYGYASKTKLGSVGGQTDISIDYNIPCVSSSGTFPCPQEDSYGNWGCKGMGACSNSQGIAYWSTDLFGFYTTPTNVTLEMTGYFLPPQTGSYTFSFATVDDSAILSVGGSIAFECCAQEQPPITSTNFTINGIKPWDGSLPDNITGTVYMYAGYYYPLKVVYSNAVSWGTLPISVELPDGTTVSDNFEGYVYSFDDDLSQSNCTIPDPSIH", "values": [{"measurement": "glycan array binding signal (z-score)", "setting": "[1]", "result": -0.127}, {"measurement": "glycan array binding signal (z-score)", "setting": "[2]", "result": -0.282}, {"measurement": "glycan array binding signal (z-score)", "setting": "[3]", "result": -0.174}, {"measurement": "glycan array binding signal (z-score)", "setting": "[4]", "result": -0.134}, {"measurement": "glycan array binding signal (z-score)", "setting": "[5]", "result": -0.142}, {"measurement": "glycan array binding signal (z-score)", "setting": "[6]", "result": -0.177}, {"measurement": "glycan array binding signal (z-score)", "setting": "[7]", "result": -0.279}, {"measurement": "glycan array binding signal (z-score)", "setting": "[8]", "result": -0.104}, {"measurement": "glycan array binding signal (z-score)", "setting": "[9]", "result": -0.147}, {"measurement": "glycan array binding signal (z-score)", "setting": "[10]", "result": -0.229}, {"measurement": "glycan array binding signal (z-score)", "setting": "[11]", "result": -0.18}, {"measurement": "glycan array binding signal (z-score)", "setting": "[12]", "result": -0.036}, {"measurement": "glycan array binding signal (z-score)", "setting": "[13]", "result": -0.16}, {"measurement": "glycan array binding signal (z-score)", "setting": "[14]", "result": -0.16}, {"measurement": "glycan array binding signal (z-score)", "setting": "[15]", "result": -0.031}, {"measurement": "glycan array binding signal (z-score)", "setting": "[16]", "result": -0.172}, {"measurement": "glycan array binding signal (z-score)", "setting": "[17]", "result": -0.108}, {"measurement": "glycan array binding signal (z-score)", "setting": "[18]", "result": -0.094}, {"measurement": "glycan array binding signal (z-score)", "setting": "[19]", "result": -0.068}, {"measurement": "glycan array binding signal (z-score)", "setting": "[20]", "result": 0.258}, {"measurement": "glycan array binding signal (z-score)", "setting": "[21]", "result": -0.161}, {"measurement": "glycan array binding signal (z-score)", "setting": "[22]", "result": -0.08}, {"measurement": "glycan array binding signal (z-score)", "setting": "[23]", "result": -0.106}, {"measurement": "glycan array binding signal (z-score)", "setting": "[24]", "result": -0.179}, {"measurement": "glycan array binding signal (z-score)", "setting": "[25]", "result": -0.098}, {"measurement": "glycan array binding signal (z-score)", "setting": "[26]", "result": -0.264}, {"measurement": "glycan array binding signal (z-score)", "setting": "[27]", "result": -0.161}]}
